# Results from the supplement of paper PMC8728848.
# Some of the results follow.
# B1: F17-L (Escherichia coli) (protein)
# chain: GPDDYVPSQIAVNTSTLPGVVIGPADAHTYPRVIGELAGTSNQYVFNGGAIALMRGKFTPALPKIGSITYTFHQGNSRDSSDFDIYDIGVSGLGIIIGMAGYWPATPLVPINSSGIYIDPVGANTNPNTYNGATASFGARLFVAFVATGRLPNGYITIPTRQLGTILLEAKRTSLNNKGLTAPVMLNGGRIQVQSQTHHHHHH
# Columns and labels:
# Test in all cases: glycan array binding signal (z-score within array); higher = stronger binding
# Conditions in all cases: glycan notation: IUPAC condensed, linker removed
# [1] = target: Fuc(a1-3)[GalNAc(b1-4)]GlcNAc
# Outline: (§1)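 The binding signal is a Z-score computed within each array and averaged over linkers. Arrays of the same protein sequence at different concentrations or buffers were also averaged together. Data originate from 3228 arrays in the Consortium for Functional Glycomics database, kept only where the protein sequence was available.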
# [2] = target: Fuc(a1-3)[GalNAc(b1-4)]GlcNAc6S
# Outline: as §1
# Fuc(a1-4)GlcNAc = target: Fuc(a1-4)GlcNAc
# Outline: as §1
# Fuc(b1-3)GlcNAc = target: Fuc(b1-3)GlcNAc
# Outline: as §1
# Gal(a1-2)Gal = target: Gal(a1-2)Gal
# Outline: as §1
# Gal(a1-3)Gal = target: Gal(a1-3)Gal
# Outline: as §1
# Gal(a1-3)Gal(b1-3)GlcNAc = target: Gal(a1-3)Gal(b1-3)GlcNAc
# Outline: as §1
# [3] = target: Gal(a1-3)Gal(b1-3)GlcNAc(b1-2)Man
# Outline: as §1
# [4] = target: Gal(a1-3)Gal(b1-3)GlcNAc(b1-2)Man(a1-3)[Gal(a1-3)Gal(b1-3)GlcNAc(b1-2)Man(a1-6)]Man(b1-4)GlcNAc(b1-4)GlcNAc
# Outline: as §1
# [5] = target: Gal(a1-3)Gal(b1-3)GlcNAc(b1-3)GalNAc
# Outline: as §1
# [6] = target: Gal(a1-3)Gal(b1-3)GlcNAc(b1-6)GalNAc
# Outline: as §1
# [7] = target: Gal(a1-3)Gal(b1-3)[Fuc(a1-4)]GlcNAc(b1-2)Man(a1-3)[Gal(a1-3)Gal(b1-3)[Fuc(a1-4)]GlcNAc(b1-2)Man(a1-6)]Man(b1-4)GlcNAc(b1-4)GlcNAc
# Outline: as §1
# Gal(a1-3)Gal(b1-4)Glc = target: Gal(a1-3)Gal(b1-4)Glc
# Outline: as §1
# Gal(a1-3)Gal(b1-4)GlcNAc = target: Gal(a1-3)Gal(b1-4)GlcNAc
# Outline: as §1
# [8] = target: Gal(a1-3)Gal(b1-4)GlcNAc(b1-2)Man
# Outline: as §1
# [9] = target: Gal(a1-3)Gal(b1-4)GlcNAc(b1-2)Man(a1-3)[Gal(a1-3)Gal(b1-4)GlcNAc(b1-2)Man(a1-6)]Man(b1-4)GlcNAc(b1-4)GlcNAc
# Outline: as §1
# [10] = target: Gal(a1-3)Gal(b1-4)GlcNAc(b1-3)GalNAc
# Outline: as §1
# [11] = target: Gal(a1-3)Gal(b1-4)GlcNAc(b1-6)GalNAc
# Outline: as §1
# [12] = target: Gal(a1-3)Gal(b1-4)[Fuc(a1-3)]GlcNAc
# Outline: as §1
# [13] = target: Gal(a1-3)Gal(b1-4)[Fuc(a1-3)]GlcNAc(b1-2)Man(a1-3)[Gal(a1-3)Gal(b1-4)[Fuc(a1-3)]GlcNAc(b1-2)Man(a1-6)]Man(b1-4)GlcNAc(b1-4)GlcNAc
# Outline: as §1
# Gal(a1-3)GalNAc = target: Gal(a1-3)GalNAc
# Outline: as §1
# [14] = target: Gal(a1-3)[Gal(a1-4)]Gal(b1-4)GlcNAc
# Outline: as §1
# [15] = target: Gal(a1-4)Gal(b1-3)GlcNAc(b1-2)Man(a1-3)[Gal(a1-4)Gal(b1-3)GlcNAc(b1-2)Man(a1-6)]Man(b1-4)GlcNAc(b1-4)GlcNAc
# Outline: as §1
# Gal(a1-4)Gal(b1-4)Glc = target: Gal(a1-4)Gal(b1-4)Glc
# Outline: as §1
# Gal(a1-4)Gal(b1-4)GlcNAc = target: Gal(a1-4)Gal(b1-4)GlcNAc
# Outline: as §1
# [16] = target: Gal(a1-4)Gal(b1-4)GlcNAc(b1-2)Man(a1-3)[Gal(a1-4)Gal(b1-4)GlcNAc(b1-2)Man(a1-6)]Man(b1-4)GlcNAc(b1-4)GlcNAc
# Outline: as §1
# [17] = target: Gal(a1-4)Gal(b1-4)GlcNAc(b1-3)Gal(b1-4)Glc
# Outline: as §1
# Gal(a1-4)GlcNAc = target: Gal(a1-4)GlcNAc
# Outline: as §1
# Gal(a1-6)Glc = target: Gal(a1-6)Glc
# Outline: as §1
# Gal(b1-2)Gal = target: Gal(b1-2)Gal
# Outline: as §1
# Gal(b1-3)Gal = target: Gal(b1-3)Gal
# Outline: as §1
# Gal(b1-3)Gal(b1-4)GlcNAc = target: Gal(b1-3)Gal(b1-4)GlcNAc
# Outline: as §1
# Gal(b1-3)GalNAc = target: Gal(b1-3)GalNAc
# Outline: as §1
# [18] = target: Gal(b1-3)GalNAc(a1-3)[Fuc(a1-2)]Gal(b1-4)Glc
# Outline: as §1
# [19] = target: Gal(b1-3)GalNAc(a1-3)[Fuc(a1-2)]Gal(b1-4)GlcNAc
# Outline: as §1
# Gal(b1-3)GalNAc(b1-3)Gal = target: Gal(b1-3)GalNAc(b1-3)Gal
# Outline: as §1
# [20] = target: Gal(b1-3)GalNAc(b1-3)Gal(a1-4)Gal(b1-4)Glc
# Outline: as §1
# [21] = target: Gal(b1-3)GalNAc(b1-4)Gal(b1-4)Glc
# Outline: as §1
# [22] = target: Gal(b1-3)GalNAc(b1-4)[Neu5Ac(a2-3)]Gal(b1-4)Glc
# Outline: as §1
# Gal(b1-3)GlcNAc = target: Gal(b1-3)GlcNAc
# Outline: as §1
# [23] = target: Gal(b1-3)GlcNAc(a1-3)Gal(b1-4)GlcNAc
# Outline: as §1
# [24] = target: Gal(b1-3)GlcNAc(a1-6)Gal(b1-4)GlcNAc
# Outline: as §1
# Gal(b1-3)GlcNAc(b1-2)Man = target: Gal(b1-3)GlcNAc(b1-2)Man
# Outline: as §1
# [25] = target: Gal(b1-3)GlcNAc(b1-2)Man(a1-3)[Gal(b1-3)GlcNAc(b1-2)Man(a1-6)]Man(b1-4)GlcNAc(b1-4)GlcNAc
# Outline: as §1
# [26] = target: Gal(b1-3)GlcNAc(b1-2)Man(a1-3)[Gal(b1-3)GlcNAc(b1-2)Man(a1-6)]Man(b1-4)GlcNAc(b1-4)[Fuc(a1-6)]GlcNAc
# Outline: as §1
binder,measurement,setting,value
B1,glycan array binding signal (z-score),[1],-0.094
same,glycan array binding signal (z-score),[2],-0.121
same,glycan array binding signal (z-score),Fuc(a1-4)GlcNAc,-0.059
same,glycan array binding signal (z-score),Fuc(b1-3)GlcNAc,-0.089
same,glycan array binding signal (z-score),Gal(a1-2)Gal,-0.191
same,glycan array binding signal (z-score),Gal(a1-3)Gal,-0.169
same,glycan array binding signal (z-score),Gal(a1-3)Gal(b1-3)GlcNAc,-0.069
same,glycan array binding signal (z-score),[3],-0.155
same,glycan array binding signal (z-score),[4],-0.086
same,glycan array binding signal (z-score),[5],-0.023
same,glycan array binding signal (z-score),[6],-0.22
same,glycan array binding signal (z-score),[7],0.699
same,glycan array binding signal (z-score),Gal(a1-3)Gal(b1-4)Glc,0.486
same,glycan array binding signal (z-score),Gal(a1-3)Gal(b1-4)GlcNAc,-0.176
same,glycan array binding signal (z-score),[8],0.391
same,glycan array binding signal (z-score),[9],-0.148
same,glycan array binding signal (z-score),[10],-0.082
same,glycan array binding signal (z-score),[11],-0.123
same,glycan array binding signal (z-score),[12],-0.194
same,glycan array binding signal (z-score),[13],-0.105
same,glycan array binding signal (z-score),Gal(a1-3)GalNAc,-0.118
same,glycan array binding signal (z-score),[14],-0.073
same,glycan array binding signal (z-score),[15],-0.094
same,glycan array binding signal (z-score),Gal(a1-4)Gal(b1-4)Glc,0.59
same,glycan array binding signal (z-score),Gal(a1-4)Gal(b1-4)GlcNAc,1.8
same,glycan array binding signal (z-score),[16],22.9
same,glycan array binding signal (z-score),[17],2.92
same,glycan array binding signal (z-score),Gal(a1-4)GlcNAc,-0.118
same,glycan array binding signal (z-score),Gal(a1-6)Glc,-0.108
same,glycan array binding signal (z-score),Gal(b1-2)Gal,-0.01
same,glycan array binding signal (z-score),Gal(b1-3)Gal,-0.106
same,glycan array binding signal (z-score),Gal(b1-3)Gal(b1-4)GlcNAc,-0.138
same,glycan array binding signal (z-score),Gal(b1-3)GalNAc,-0.084
same,glycan array binding signal (z-score),[18],-0.163
same,glycan array binding signal (z-score),[19],-0.094
same,glycan array binding signal (z-score),Gal(b1-3)GalNAc(b1-3)Gal,0.019
same,glycan array binding signal (z-score),[20],-0.115
same,glycan array binding signal (z-score),[21],-0.093
same,glycan array binding signal (z-score),[22],-0.132
same,glycan array binding signal (z-score),Gal(b1-3)GlcNAc,-0.102
same,glycan array binding signal (z-score),[23],-0.169
same,glycan array binding signal (z-score),[24],-0.128
same,glycan array binding signal (z-score),Gal(b1-3)GlcNAc(b1-2)Man,-0.019
same,glycan array binding signal (z-score),[25],-0.036
same,glycan array binding signal (z-score),[26],-0.109
